These results are taken from the supplement of paper PMC4723716.

± gives the uncertainty stated by the source. The full ranking holds about 9,900 compounds; the median of “viability index relative to DMSO control” is about 1, and the lowest 2% start at about 0.85. The list shows a part of the results.

The assay relates to Plasmodium falciparum NF54 stage V gametocytes. In words: viability index relative to DMSO control (fraction); higher = less gametocyte killing. To be noted: 2.5 µM, incubation time: 72 h. The procedure:
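Broad DOS informer set and blood-stage-active DOS compounds screened in duplicate at 2.5 µM against P. falciparum NF54 stage V gametocytes with the serum-free one-step SaLSSA (1536-well): 72 h at 37 °C under low oxygen, then saponin lysis and MitoTracker Red CMXRos staining, with high-content imaging. Viability index = viable-object count divided by the plate mean of DMSO wells (0 = killed, about 1 = inactive).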

The mark [1] stands for this setting: library set: Broad Institute DOS.

`O=C(C[C@@H]1CC[C@H]2[C@@H](COC[C@@H](O)CN2CC2CCOCC2)O1)NCc1ccc(Cl)cc1` gave a viability index under setting [1] of 1.03 ± 0.047.

As to `CO[C@@H]1CN(C)C(=O)c2ccc(NC(=O)NC(C)C)cc2OC[C@@H](C)N(Cc2ccc(-c3ccccn3)cc2)C[C@@H]1C`, the viability index under setting [1] was 1.08 ± 0.019.

As to `CNC[C@H]1Oc2ncc(-c3cncnc3)cc2C(=O)N([C@H](C)CO)C[C@@H]1C`, the viability index under setting [1] stood at 0.979 ± 0.074.

`COc1ccc2c3c([nH]c2c1)[C@@H](CO)N(Cc1cc(F)ccc1F)C[C@]31CCN(CC1)C(=O)CN(C)C` had a viability index under setting [1] of 0.945 ± 0.049.

As to `CO[C@@H](CN(C)Cc1ccc2c(c1)OCO2)[C@@H](C)CN(C(=O)c1ccccc1)[C@H](C)CO`, the viability index under setting [1] worked out at 1.01 ± 0.042.

For `COc1ccc(S(=O)(=O)Nc2ccc3c(c2)CC(=O)N([C@H](C)CO)C[C@H](C)[C@H](CN(C)Cc2ccc(C(=O)Nc4ccccc4N)cc2)O3)cc1`, under setting [1], the viability index amounted to 0.766 ± 0.044.

In the case of `CCS(=O)(=O)N1[C@H](CO)[C@@H](c2ccc(-c3cccc(F)c3)cc2)[C@@H]1C#N`, the viability index under setting [1] turned out to be 1.13 ± 0.033.

`CN1C(=O)c2cc(NC(=O)c3cccc(Cl)c3)ccc2OC[C@@H]2O[C@H](CC(=O)NC3CCCCC3)CC[C@H]21`: the viability index under setting [1] is 1.08 ± 0.031.

Compound `CCCC(=O)Nc1ccc2c(c1)OC[C@H](C)N(C(=O)c1cccnc1)C[C@@H](C)[C@H](OC)CN(C)C2=O` returned a viability index under setting [1] of 1.05 ± 0.014.

Turning to `COCC#Cc1ccc([C@@H]2[C@H]3CN(C(=O)NC4CCCC4)CCCCN3[C@H]2CO)cc1`, under setting [1], the viability index was determined as 1.02 ± 0.023.

Consider `COc1ccc(-c2ccc3n(c2=O)C[C@@H]2[C@@H](CO)[C@H](C(=O)N4CCOCC4)N[C@H]32)cc1`, for which the viability index under setting [1] was found to be 1.07 ± 0.054.

The compound `CCCC(=O)N1C[C@]2(CN(C2)C(=O)C2CC2)c2c([C@@H]1CO)n(C)c1cc(OC)ccc21` yielded a viability index under setting [1] of 1.06 ± 0.042.

Compound `C[C@@H]1CCCCO[C@H](CN(C)C(=O)CCCN(C)C)[C@@H](C)CN([C@@H](C)CO)C(=O)c2cc(NC(=O)Nc3ccc4c(c3)OCO4)ccc2O1` yielded a viability index under setting [1] of 1.08 ± 0.056.

Under setting [1], `O=C(C[C@H]1CC[C@H](NS(=O)(=O)c2ccccc2F)[C@@H](CO)O1)NCCCN1CCOCC1` displayed a viability index of 0.87 ± 0.14.

Turning to `OC[C@H]1[C@@H](c2ccc(-c3cccc(F)c3)cc2)[C@H]2CN(Cc3cncnc3)CCCCN21`, the viability index under setting [1] was 1.05 ± 0.071.

The compound `CN1c2ccc(-c3ccc(C#N)cc3)cc2[C@@H]2[C@@H](CCN2S(=O)(=O)c2ccc(F)cc2)[C@@H]1CO` showed a viability index under setting [1] of 1.086 ± 0.0029.

Under setting [1], `C[C@H](CO)N1C[C@H](C)[C@H](CN(C)C(=O)Nc2ccnc(N3CCOCC3)c2)OCc2ccccc2-c2ccccc2C1=O` returned a viability index of 0.96 ± 0.11.

As for `CO[C@@H]1CN(C)C(=O)c2ccc(NC(=O)NC(C)C)cc2OC[C@H](C)N(Cc2ccc(-c3ccccn3)cc2)C[C@@H]1C`, the viability index under setting [1] is 1.11 ± 0.095.

The compound `O=C(C[C@@H]1CC[C@@H]2[C@H](COC[C@H](O)CN2C(=O)Nc2ccc(F)cc2)O1)NC1CCC1` came in with a viability index under setting [1] of 1.1 ± 0.012.

In the case of `C[C@@H]1CCCCO[C@H](CN(C)Cc2ccc3c(c2)OCO3)[C@H](C)CN([C@@H](C)CO)C(=O)c2cc(NS(=O)(=O)c3cn(C)cn3)ccc2O1`, the viability index under setting [1] is 1.052 ± 0.0054.

`O=C(O)C[C@H]1CC[C@H]2[C@@H](COC[C@H](O)CN2S(=O)(=O)c2ccc(Oc3ccccc3)cc2)O1` displayed a viability index under setting [1] of 1.08 ± 0.056.

`COc1ccc2c3c([nH]c2c1)[C@H](CO)N(C[C@]31CN(C1)S(=O)(=O)c1ccc(C)cc1)C(=O)Nc1ccc(F)cc1` gave a viability index under setting [1] of 1.05 ± 0.054.

Compound `C[C@H]1CN([C@@H](C)CO)C(=O)c2cc(C#Cc3cccc(F)c3)cnc2O[C@@H]1CN(C)C(=O)C1CCCCC1` yielded a viability index (library set: Broad Institute Blood Stage) of 0.769 ± 0.073.

Take `NCC[C@H]1CC[C@@H](NC(=O)Cc2ccncc2)[C@H](CO)O1`: under setting [1], the viability index was 1.091 ± 0.0072.

Turning to `O=S(=O)(c1ccccc1)N1[C@H](CO)[C@@H]2c3ccccc3NC[C@@H]21`, the viability index under setting [1] turned out to be 1.01 ± 0.011.

Compound `C[C@@H]1CN([C@@H](C)CO)C(=O)c2cc(Br)cnc2O[C@H]1CN(C)C(=O)Nc1ccc2c(c1)OCO2` showed a viability index under setting [1] of 0.991 ± 0.028.

Regarding `CN1[C@@H]2c3ccc(-c4ccncc4)c(=O)n3C[C@H]1[C@H](CO)[C@H]2C(=O)N1CCC(Cc2ccccc2)CC1`, the viability index under setting [1] is 1 ± 0.031.

The compound `COC(=O)[C@@H]1[C@@H](CO)[C@@H]2Cn3c(ccc(C4=CCCC4)c3=O)[C@@H]2N1C(=O)Cc1cccnc1` came in with a viability index under setting [1] of 1.06 ± 0.053.

In turn, `CN(C)C(=O)c1cccc(-c2ccc([C@@H]3[C@@H]4CN(Cc5cocn5)C[C@H]3N4)cc2)c1` yielded a viability index under setting [1] of 0.989 ± 0.029.

`CO[C@H]1CC[C@@H]2CCOc3c(C#N)cccc3C(=O)N(C)C[C@@H](c3ccccc3)CC(=O)N(C)C[C@@H]1O2`: the viability index under setting [1] amounted to 1.036 ± 0.008.

Consider `CN1C(=O)c2cc(NC(=O)c3cnccn3)ccc2OC[C@H]2O[C@H](CC(=O)N[C@@H]3CCN(Cc4ccccc4)C3)CC[C@@H]21`, for which the viability index under setting [1] was found to be 1.02 ± 0.052.

Under setting [1], `COc1ccc2c3c([C@@H](CO)N(C[C@]33CCN(CC3)C(=O)Nc3cccc(F)c3)S(C)(=O)=O)n(C)c2c1` returned a viability index of 1.05 ± 0.031.

Consider `COCCNC[C@@H]1[C@H](c2ccccc2)[C@H](CO)N1c1nc(C)c(C)s1`, for which the viability index under setting [1] came out at 1.02 ± 0.067.

Under setting [1], `COc1ccc(-c2ccc([C@H]3[C@H](CO)N4C(=O)CN(C(=O)Cc5ccccn5)C[C@@H]34)cc2)cc1` came in with a viability index of 1.02 ± 0.012.

With `O=C(Nc1cc(F)ccc1F)N[C@H]1CC[C@H](CCn2cc(C3CCCCC3)nn2)O[C@@H]1CO`, the viability index under setting [1] was 1.07 ± 0.0077.
